The other results are listed elsewhere or left out. The main result of the screen is listed elsewhere. These columns were measured beside it and carry no call.
Molecular target: GTPase KRas (Homo sapiens) (UniProt P01116)
Experiment: Cysteine mutants labelled by reactive fragments (mass read-out) (AID 2202238)
Parameters: protein at 5 µM with 500 µM competing thiol for 1.5 h
Settings: KRAS G12D cysteine mutants, disulfide tethering, MALDI-TOF labeling, stronger effect = higher value, fragment at 500 µM
[1] = measured here: G75C mutant labeling
[2] = measured here: H94C mutant labeling
[3] = measured here: I36C mutant labeling
[4] = measured here: L120C mutant labeling
[5] = measured here: M67C mutant labeling
[6] = measured here: M72C mutant labeling
[7] = measured here: N86C mutant labeling
[8] = measured here: P121C mutant labeling
[9] = measured here: S122C mutant labeling
[10] = measured here: S136C mutant labeling
[11] = measured here: G60C mutant labeling
[12] = measured here: N26C mutant labeling

Sequence of UniProt P01116 (P01116 whole entry, looked up, the tested form may be a part): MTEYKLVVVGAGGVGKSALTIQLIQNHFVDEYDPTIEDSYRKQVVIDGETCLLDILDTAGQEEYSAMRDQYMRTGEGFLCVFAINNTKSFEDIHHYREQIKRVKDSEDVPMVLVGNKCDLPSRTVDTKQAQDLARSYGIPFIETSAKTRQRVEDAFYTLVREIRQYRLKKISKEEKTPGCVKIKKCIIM

SMILES	percent labeling [1]	percent labeling [2]	percent labeling [3]	percent labeling [4]	percent labeling [5]	percent labeling [6]	percent labeling [7]	percent labeling [8]	percent labeling [9]	percent labeling [10]	percent labeling [11]	percent labeling [12]
Cn1cc(NC(=O)CCS)c(-c2ccccn2)n1	22.3%	24%	15.7%	19.7%	29.3%	36.6%	11%	21.3%	23.3%	37.1%		
O=C(NCCS)c1csc(-c2cc3ccccc3o2)n1	19.6%	14.3%	10.4%	15.6%	10.5%	38.9%	13.5%	12.6%	8.3%	14.4%	31.8%	28.1%
Cn1nnc(CN2CCC[C@@H]2C(=O)NCCS)n1	10.5%	36.7%	16.7%	31.9%	30.4%	11.2%	28.1%	34.5%	31.7%	42%	25%	32%
O=C(NCCS)c1cnn(-c2ccc(Cl)cc2Cl)c1	13.4%	12.2%	11%	11.1%	11.3%	35.1%	9.5%	13.7%	7.2%	16.6%	29.4%	27.3%
Cc1ccc(S(=O)(=O)N2CCC(C(=O)NCCS)CC2)cc1Cl	6.1%	5.4%	4.5%	6.4%	10.4%	10.5%	5.1%	5.3%	3.6%	7%	9.6%	20.4%
Cc1noc(CN2CCN(C(=O)CCS)CC2)n1	8.3%	26.7%	31.8%	26%	34.8%	12.3%	24.2%	36.2%	33.5%	48.9%		
O=C(CCC(=O)N1CCOc2ccccc21)NCCS	16%	37.3%	24.4%	48.9%	44.8%	32.9%	26.4%	38.8%	31.9%	50%	50.4%	36%
O=C(CCS)Nc1cccc(-c2ccccc2C(F)(F)F)c1F	19.1%	16.7%	18.8%	17.8%	17.6%	39.1%	24.7%	17.1%	7.3%	25%		
CC(C)(C)OC(=O)N1CCC2(CC1)CCN2C(=O)CCS	12.3%	28.2%	26.6%	20.7%	30.8%	17.2%	15.5%	26.8%	22.6%	42.8%		
Cn1ccc(NC(=O)CNC(=O)CCS)n1	9%	18.1%	33.9%	34.7%	20%	12.4%	31.8%	32.4%	30.7%	39.9%		
O=C(CCS)Nc1ccc(SCc2ccccc2)c(Br)c1	10.7%	8.5%	20.9%	6.8%	22.7%	43.8%	11.3%	8.8%	4.2%	32.5%		
O=C(CCS)NCCn1ccc2c(Br)cccc21	16.6%	29.2%	24.1%	16.5%	22.3%	47.1%	25.8%	21.8%	12.6%	28.2%		
O=C(CCS)Nc1ccc(Oc2ccccc2)c(F)c1	17.4%	14.7%	19.4%	18.8%	29.8%	55.1%	20.8%	18.1%	12.4%	28.6%		
CC(C)n1nccc1C1NC(=O)CCC1NC(=O)CCS (centres undefined)	7.4%	35.7%	40.3%	26.9%	38.1%	14.3%	25.3%	36.4%	27.9%	55.4%		
O=C(CCS)N1CCC(n2ccc(=O)[nH]c2=O)CC1	8.6%	29%	38.7%	31.7%	38%	20.5%	19.3%	32.9%	35.2%	50.3%		
O=C(NCCS)c1cc2ccc(Br)cc2c(=O)[nH]1	4.1%	9.8%	9%	4.6%	7.4%	7.9%	7.1%	8%	3.4%	6.4%	9.7%	16%
CC1(N2CCCC2)CCN(C(=O)CCS)CC1	11.4%	28.5%	43.8%	19.6%	39.4%	16.4%	24.4%	31.6%	21.9%	49.9%		
O=C(NCCS)c1ccc2nc(-c3ccc(F)cc3)[nH]c2c1	9.2%	14.7%	11.4%	9.3%	9.9%	20.4%	14.8%	10.5%	7.1%	13%	19%	37.6%
Cc1noc(-c2ccccc2C(=O)NCCS)n1	14.2%	32.7%	20.5%	32.7%	28.5%	20%	30.4%	33.5%	29.9%	41.2%	36.3%	35.6%
O=C(NCCS)c1ccc2[nH]c(=O)n(CC(F)(F)F)c2c1	31.5%	40.5%	26.6%	54.1%	38.6%	65.2%	23.7%	31.2%	24.3%	49.4%	49.5%	49.8%
O=C(CCS)NC1(c2ncccc2F)CCC1	13.7%	31.9%	37.2%	43.5%	32.6%	32.1%	37.3%	40.1%	43.5%	62.9%		
Cc1sc2ncn(CCC(=O)NCCS)c(=O)c2c1C	24.7%	29.6%	26.4%	21.8%	36.9%	30.1%	17.3%	24.5%	19.1%	32.1%	40.7%	32.7%
COC(=O)c1cc(C2CN(C(=O)CCS)C2)[nH]n1	13.7%	28.5%	39.1%	25.1%	39.7%	24.9%	26.8%	25.9%	30.9%	44.9%		
Cc1cccc(NC(=O)CCNC(=O)CCS)n1	0%	11.6%	7.3%	9.1%	16.3%	4.2%	6.5%	14.6%	13.8%	18.2%		
CC(O)(CN1C(=O)C(C)(C)c2ccccc21)C(=O)NCCS (centres undefined)	19.2%	38.7%	27.1%	34.8%	39.3%	37.2%	30.5%	32.9%	32.8%	57.3%	42.4%	40.2%
CC1CC1c1ccc(CNC(=O)CCS)o1 (centres undefined)	19.4%	33.6%	28.3%	22.1%	23.2%	34%	22.9%	26.8%	31%	45.8%		
O=C(Cc1cc2ccccc2c(=O)o1)NCCS	10.6%	22.2%	27.2%	43.2%	42.3%	49.7%	30.7%	27.8%	27.9%	44.8%	30.2%	39.8%
Cn1cc(CN(Cc2cnn(C)c2)C(=O)CCS)cn1	10.5%	33.3%	37.5%	28.4%	39.3%	16.9%	18.6%	32.2%	36.6%	54.1%		
O=C(CCS)N1CCC(n2cnc3ccccc32)CC1	21.6%	38.2%	45.6%	43.3%	51%	42.3%	28.9%	40.3%	34%	57.5%		
CC(C)(O)c1n[nH]c(CNC(=O)CCS)n1	15.6%	20.6%	31.6%	30.2%	28.2%	15.6%	21.1%	33.2%	37.5%	39.4%		

Reference: PubChem BioAssay AID2202238 (Ras Initiative Chemistry Research Team, Frederick National …, 2025)
